Test results as given in the supplement of paper PMC11417369.
This is one part of the list.

What follows are sequences tested on PfSIP2 AP2 domain 1 (GST-tagged) (assay: gcPBM binding intensity (ln(normalized median fluorescence intensity)); higher = stronger DNA binding).
Summary of the method: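 Probes on an Agilent 4 × 180k array were primer-extended, double-stranded and 36 bp long, taken from intergenic genomic regions, with negative controls added. GST-tagged P. falciparum DNA-binding domains from E. coli, about 25 μg on average, were applied to the array for 1 h in 1× PBS containing 1% milk, 0.2 mg/ml BSA, 0.5% salmon testes DNA and 0.03% Triton X-100. Binding intensity, obtained after Alexa488 anti-GST antibody detection and a 488 nm scan, is the highest Masliner-normalised natural-log median intensity across replicate spots of either probe orientation.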

Sequence	gcPBM binding intensity (ln)
TACTTGTTATTAACATGTACAAAAAAAAAAAAAATT [XGTACX_site1338]	6.89
AAACAATATTCTCAAGTGCAAAAAGAAAAAAGAAAT	7.78
TTTATTTTTATTTAAAGTACATATCCATTTATTCCT [XGTACX_site1914]	7.07
AATGTACCCACACCCACACACAAACAAATATATATA [CACACA_site2751]	7.47
ATAGGATGCATATGAGTGCATTCTGTGTTGTTATAA	10.1
AGATTAAAATATATACGTACATATTATTAATTAATA [XGTACX_site3487]	7.16
TAATGTATTATATTTTGTTTTCTTCCACCAAAAAAA [XGTACX_negctrl_site64]	7
AAAAAAAAAATTAAATGTACACACACCTTAAACAAT [XGTACX_site3848]	6.96
ATTTTCTTATATATATTTTGTATATATTTTGTACAT [CACACA_negctrl_site1496]	7.15
ACCCATATAATATATACACACATATATATATATATA [CACACA_site4731]	8.96
TAAAAATTGAAGCACACACACAAAAGAAATACAATA [CACACA_site1113]	6.98
TTTTTTTTTACTTGTTGTACTTTTTCAAGGTATTGT [XGTACX_site7778]	7.07
ATATAAAAAAATTGCACACATAAATAAATACAGATA [CACACA_site4806]	7.28
CTACCTTTAATATATACACACACATAAAAAAAATAT [CACACA_site8548]	7.44
ATATATATATATAATAAACACACAAATAGATATAAC [CACACA_site9234]	9.02
TATATATATATATATACATGCATACATATACATACA [TGCATGCA_site897]	9.01
AGATAAGATATATACACACACATAAATACGTACAAA [CACACA_site6639]	7.26
ATATTTACAAGTAATAGTACAGTTAATTATATAAAA [XGTACX_site4856]	6.95
ATTATATAGCTAAAAAAAATAAATTAAAAATATTAA [TGCATGCA_negctrl_site505]	6.65
AAGAATGTTATTAGTACACACAATTATTATAGAAAT [CACACA_site7714]	6.94
AATGTACAAATACGTACACACATATTTATATTTATA [CACACA_site6833]	7.46
TAGTTTTTTATATATTGTACAAATAATATATGATAT [XGTACX_site4220]	7.12
AGTGATTATTAATAATGTACATATCTATAAATATAT [XGTACX_site4734]	7

Sequence	gcPBM binding intensity (ln)
TTTTTTTTTTTTTTCTTACAATTTATTGAACAAATG [XGTACX_negctrl_site515]	7.11
TATATATTTCATCCTTGTACACATTTGTGTTTACAT [XGTACX_site1132]	7.02
GTATTGCATGAGGACACACACAAAAAAAATATAGAT [CACACA_site6500]	7.4
AATAAATAAATATATATATATATATATATATATATA [CACACA_negctrl_site365]	9.02
ACAATTTACACTTAAACACACAAAAAAAAGTTATAT [CACACA_site7056]	7.18
TATCAAAATTGTAATTGTACTTGTAAGTGGATATAT [XGTACX_site5949]	7.12
ATATATTGCACTTTTTGTACATAATGAAAAATTTTT [XGTACX_site8223]	8.1
TACATATTGATATATACACACAAAAAAATAAATTCT [CACACA_site6198]	7
ACCTTAATAAAAAAAAGTACAAACATGTTCAAATTG [XGTACX_site1556]	7.34
AATTCGTACCTCATTTGTACATATATATATATATAT [XGTACX_site5513]	9.34
TTTTTTATAGTACATTACCAAAAAAAAAAAAAAAAA [GTGCAC_negctrl_site549]	7.07
CATACACCCATACATACACACATACAGATATATATA [CACACA_site5123]	7.45
TCACCATATAAACGTGCACACTACAAAAATATATAA [CACACA_site5413]	11
CTTTTATTTTATTTTAGTACGCAACATTCTCTATAT [XGTACX_site7279]	7.17
TATTTATTTAAAAATTGTACGTAGGATTATACACTT [XGTACX_site286]	7.04
ATATAAATATTATAATGTACATATAATATATTTATT [XGTACX_site5212]	6.9
ATCTCTGTATGTTAGACACACATATTTTAATATGTT [CACACA_site4244]	6.83
TAAAATTTGTACATAGTGCAATTTTTTTTTTTTTTT	8.15
AGCAAAACATAAAATAGTACACATTTAACAAAAAAA [XGTACX_site2921]	7.24
TTTTATCATCTTTTTACATTATGTATAAATATTTTC [CACACA_negctrl_site206]	6.99
AAAAGAACAATGAAGTGTACTAATAATTATTTATGT [XGTACX_site6649]	7.22
ATATAATATATTTTTGAACACACAATATATATATAT [CACACA_site9368]	9.01
